We go through 1 molecule from PMC11938383, “Antibodies targeting ADAM17 reverse neurite outgrowth inhibition by myelin-associated inhibitors” (Life Science Alliance, 2025).

In the experiment the target is T1, neuron-myelin 5-mer signaling complex (NgR1, Lingo-1-Fc, p75, MAG, GT1b-Na) (mouse | human, UniProt Q9D1T0 35-516; Q9BZR6 30-430; P08138 31-210; P20916 22-504).
T1 construct: Lingo-1, mouse, residues 35-516; NgR1, human, residues 30-430; p75, human, residues 31-210 (the version used in the pull-down assays, by which the complex was made); MAG, human, residues 22-504; The fifth component is the ganglioside GT1b (no protein); also called 5-mer complex; 5-mer neuron-myelin complex; source: for ELISA and BLI eluted with 100 mM glycine-HCl pH 3.5 and brought to pH 7; not …
T1 sequence (Q9D1T0 35-516, chain 1 of 4): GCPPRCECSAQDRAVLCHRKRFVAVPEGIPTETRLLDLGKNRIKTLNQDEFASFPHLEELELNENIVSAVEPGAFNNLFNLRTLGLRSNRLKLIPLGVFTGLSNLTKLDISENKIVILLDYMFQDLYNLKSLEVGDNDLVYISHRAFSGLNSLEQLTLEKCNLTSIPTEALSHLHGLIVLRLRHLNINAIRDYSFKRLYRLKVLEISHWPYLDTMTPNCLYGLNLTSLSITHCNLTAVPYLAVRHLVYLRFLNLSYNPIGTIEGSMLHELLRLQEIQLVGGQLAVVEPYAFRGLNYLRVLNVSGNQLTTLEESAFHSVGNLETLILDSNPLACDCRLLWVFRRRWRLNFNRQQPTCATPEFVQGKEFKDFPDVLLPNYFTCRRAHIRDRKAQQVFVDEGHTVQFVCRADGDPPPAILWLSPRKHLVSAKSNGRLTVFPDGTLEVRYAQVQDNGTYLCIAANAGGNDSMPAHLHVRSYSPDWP
T1 sequence (Q9BZR6 30-430, chain 2 of 4, further chain): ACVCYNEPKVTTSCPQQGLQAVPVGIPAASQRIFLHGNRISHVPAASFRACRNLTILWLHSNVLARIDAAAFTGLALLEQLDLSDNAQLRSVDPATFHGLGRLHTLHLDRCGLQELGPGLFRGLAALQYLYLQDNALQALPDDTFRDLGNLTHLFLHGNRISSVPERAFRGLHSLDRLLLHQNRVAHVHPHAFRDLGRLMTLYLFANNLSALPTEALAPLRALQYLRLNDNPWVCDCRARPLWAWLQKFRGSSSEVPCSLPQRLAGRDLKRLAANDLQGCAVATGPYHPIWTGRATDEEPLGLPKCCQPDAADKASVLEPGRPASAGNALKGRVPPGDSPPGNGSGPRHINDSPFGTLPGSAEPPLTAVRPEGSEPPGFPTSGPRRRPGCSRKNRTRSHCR
T1 sequence (P08138 31-210, chain 3 of 4, further chain): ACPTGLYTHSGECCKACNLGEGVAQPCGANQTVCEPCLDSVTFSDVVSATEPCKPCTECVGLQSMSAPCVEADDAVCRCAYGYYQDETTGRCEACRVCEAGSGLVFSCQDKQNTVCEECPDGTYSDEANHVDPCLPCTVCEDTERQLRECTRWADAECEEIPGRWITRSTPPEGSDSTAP
T1 sequence (P20916 22-504, chain 4 of 4, further chain): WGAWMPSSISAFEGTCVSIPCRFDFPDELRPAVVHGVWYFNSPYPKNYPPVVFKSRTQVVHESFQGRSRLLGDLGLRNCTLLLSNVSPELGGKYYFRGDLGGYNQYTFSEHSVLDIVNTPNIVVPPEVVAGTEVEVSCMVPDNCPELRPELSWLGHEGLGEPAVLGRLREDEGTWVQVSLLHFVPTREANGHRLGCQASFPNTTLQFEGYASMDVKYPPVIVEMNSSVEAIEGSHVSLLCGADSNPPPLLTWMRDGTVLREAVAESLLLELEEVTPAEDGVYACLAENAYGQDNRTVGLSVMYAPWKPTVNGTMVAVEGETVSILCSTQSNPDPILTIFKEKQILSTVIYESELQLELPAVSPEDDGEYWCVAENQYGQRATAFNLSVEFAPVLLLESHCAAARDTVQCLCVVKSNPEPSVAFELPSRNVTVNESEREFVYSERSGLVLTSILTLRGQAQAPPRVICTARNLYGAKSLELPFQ
As to the kind of experiment: BLI; Blitz (Forte Bio); 5-mer complex (via Lingo-Fc) or p75-Fc loaded at 50 μg/ml on protein A sensors; ADAM17 ECD (E406A) or D+C in solution; HBS (20 mM Hepes, 150 mM NaCl pH 7.4); apparent KD. To be noted: both partners purified.

B1: ADAM17 ectodomain (ECD), […], active-site mutant E406A (domain or fragment)
chain: not shown
notes: ADAM17, human; cloned as 20-650; the prodomain was cleaved off and the mature polypeptide consisted of MP, D and C domains ([…]); Removable Fc tag; surmise: cut off, since this form served as prey on protein A beads and as analyte on protein A sensors, and the Fc-tagged form is named apart; also called ADAM17 ECD; ADAM17 ECD (E406A); source: baculovirus-infected Hi-5 cells, purified (protein A …)
Turning to B1, the Kd was ~0.5 µM.
